{"source": "paper PMC4336329", "about": "(PLoS ONE, 2015)", "note": "Hit rate of the full screen: of about 310,000 compounds, about 14,000 (4.5%) showed an effect of 50% or more. Effects have a minus sign here. The list shows a part of the results.", "data": [{"target": "human ether-à-go-go-related gene (hERG) potassium channel (human, UniProt Q12809)", "sequence (Q12809 whole entry, looked up)": "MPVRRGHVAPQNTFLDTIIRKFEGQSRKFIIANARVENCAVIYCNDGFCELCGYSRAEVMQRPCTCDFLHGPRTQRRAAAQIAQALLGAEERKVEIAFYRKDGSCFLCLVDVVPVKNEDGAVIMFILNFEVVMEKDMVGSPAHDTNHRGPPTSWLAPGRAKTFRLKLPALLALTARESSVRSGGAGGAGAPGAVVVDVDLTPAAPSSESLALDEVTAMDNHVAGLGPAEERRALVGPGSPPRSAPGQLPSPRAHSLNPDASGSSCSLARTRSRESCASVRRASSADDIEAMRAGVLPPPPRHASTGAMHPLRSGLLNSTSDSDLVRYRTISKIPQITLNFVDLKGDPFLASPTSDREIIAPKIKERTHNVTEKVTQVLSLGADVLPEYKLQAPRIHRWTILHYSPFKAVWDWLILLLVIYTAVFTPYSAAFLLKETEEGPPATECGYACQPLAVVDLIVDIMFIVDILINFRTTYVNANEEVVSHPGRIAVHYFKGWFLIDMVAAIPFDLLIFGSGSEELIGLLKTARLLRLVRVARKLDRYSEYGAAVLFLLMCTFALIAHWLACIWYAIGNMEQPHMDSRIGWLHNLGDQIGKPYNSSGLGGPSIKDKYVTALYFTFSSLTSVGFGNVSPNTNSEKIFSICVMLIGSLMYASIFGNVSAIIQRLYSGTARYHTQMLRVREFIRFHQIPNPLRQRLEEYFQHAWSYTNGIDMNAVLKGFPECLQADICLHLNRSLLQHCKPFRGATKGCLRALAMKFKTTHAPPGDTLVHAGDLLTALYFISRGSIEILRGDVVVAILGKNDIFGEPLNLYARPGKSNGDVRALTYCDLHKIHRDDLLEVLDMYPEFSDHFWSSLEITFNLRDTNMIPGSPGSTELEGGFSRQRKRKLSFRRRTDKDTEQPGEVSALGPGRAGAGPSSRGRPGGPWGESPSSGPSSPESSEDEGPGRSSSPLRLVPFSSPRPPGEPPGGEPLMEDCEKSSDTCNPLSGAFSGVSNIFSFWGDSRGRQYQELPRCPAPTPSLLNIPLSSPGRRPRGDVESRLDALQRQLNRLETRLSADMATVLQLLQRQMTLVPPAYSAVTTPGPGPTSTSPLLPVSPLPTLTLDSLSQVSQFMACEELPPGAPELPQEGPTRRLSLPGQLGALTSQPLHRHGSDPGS", "assay": "primary screen, population patch clamp on CHO cells stably expressing hERG", "units": {"hERG current change (%, negative = inhibition) at 10uM": "%"}, "values": [{"compound": "OCCCNC(c1ccccc1)c1ccc(O)cc1", "note": "(stereo not drawn);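 note: peak tail current of the secondary pulse compared with the same well before compound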", "hERG current change (%, negative = inhibition) at 10uM": 3.52}, {"compound": "O=c1c2nnn(Cc3ccc(Cl)cc3)c2ncn1Cc1ccc(F)cc1", "hERG current change (%, negative = inhibition) at 10uM": 10.8}, {"compound": "O=S(=O)(NCc1cc(-c2ccccc2Cl)no1)c1ccc(Cl)cc1", "hERG current change (%, negative = inhibition) at 10uM": 3.07}, {"compound": "CSc1ccc(C(=O)C(C)(C)N2CCOCC2)cc1", "hERG current change (%, negative = inhibition) at 10uM": -15.5}, {"compound": "CCc1ccc(NC(=O)C2CCN(C(=O)N3CCOc4ccccc43)CC2)cc1", "hERG current change (%, negative = inhibition) at 10uM": -44.9}, {"compound": "Cc1ccccc1NC(=O)CC(=O)c1ccccc1", "hERG current change (%, negative = inhibition) at 10uM": 17.1}, {"compound": "Cc1nc2c(Cl)cccc2c2c1CC(CBr)O2", "note": "(stereo not drawn)", "hERG current change (%, negative = inhibition) at 10uM": -12.2}, {"compound": "COc1cccc(CN(C)CC(=O)Nc2ccccc2C(C)C)c1.O=C(O)C(=O)O", "hERG current change (%, negative = inhibition) at 10uM": -4.48}, {"compound": "COc1ccc(-c2noc(C3CCCN(C(=O)c4ccccc4OC)C3)n2)cc1", "note": "(stereo not drawn)", "hERG current change (%, negative = inhibition) at 10uM": 3.05}, {"compound": "COc1ccccc1NC(=O)CSc1nc(N)c(-c2ccccc2)c(=O)[nH]1", "hERG current change (%, negative = inhibition) at 10uM": 9.3}, {"compound": "Cn1c(SCC(N)=O)nnc1-c1ccc(S(=O)(=O)N2CCCC2)cc1", "hERG current change (%, negative = inhibition) at 10uM": 4.87}, {"compound": "COc1ccccc1/C=C/C(=O)NCC(=O)N/N=C(/C)c1ccco1", "hERG current change (%, negative = inhibition) at 10uM": 7.74}, {"compound": "O=C(CNS(=O)(=O)c1cccs1)N1CCCCC1", "hERG current change (%, negative = inhibition) at 10uM": 8.2}, {"compound": "CCOC(=O)c1cnc2c(C)cccc2c1Nc1cccc(C(=O)O)c1.Cl", "hERG current change (%, negative = inhibition) at 10uM": -8.37}, {"compound": "O=C(CCNC(=O)C1CCN(S(=O)(=O)c2ccc(F)cc2)CC1)NCc1ccccc1Cl", "hERG current change (%, negative = inhibition) at 10uM": -12.9}, {"compound": "O=C(CSCc1ccc(Cl)cc1)Nc1ccccc1O", "hERG current change (%, negative = inhibition) at 10uM": 19.2}, {"compound": "Cc1c(C(N)=O)c(N)c(C(=O)c2ccccc2)n1-c1ccccc1", "hERG current change (%, negative = inhibition) at 10uM": -0.493}, {"compound": "O=C(NCc1cccs1)C(Cc1ccccc1)NS(=O)(=O)c1cccs1", "note": "(stereo not drawn)", "hERG current change (%, negative = inhibition) at 10uM": -42.9}, {"compound": "COc1ccc(CN2CCCC(CO)(Cc3cccc(Cl)c3)C2)cc1OC", "note": "(stereo not drawn)", "hERG current change (%, negative = inhibition) at 10uM": -63.2}, {"compound": "COCCN(CCOC)C(=O)c1sc2nc(-c3ccccc3)cn2c1C", "hERG current change (%, negative = inhibition) at 10uM": -16.6}, {"compound": "Cc1nn2c(N3CCOCC3)cc(C(C)(C)C)nc2c1-c1ccccc1", "hERG current change (%, negative = inhibition) at 10uM": 15.7}, {"compound": "Cc1ccc(CNC(=O)CSc2nc3ccsc3c(=O)n2Cc2ccc(C(=O)O)cc2)cc1", "hERG current change (%, negative = inhibition) at 10uM": 11.7}, {"compound": "O=C1CCC(C(=O)N2CCC(O)(c3ccccc3)CC2)CN1CCc1ccccc1", "note": "(stereo not drawn)", "hERG current change (%, negative = inhibition) at 10uM": -16.3}, {"compound": "CCN(CC)C(=O)c1ccc(NC(=S)NC(=O)CCc2ccccc2)cc1", "hERG current change (%, negative = inhibition) at 10uM": -3.02}, {"compound": "Cn1c(=O)[nH]c(=O)c2c1nc(NCc1ccccc1)n2CC(O)c1ccccc1", "note": "(stereo not drawn)", "hERG current change (%, negative = inhibition) at 10uM": -6.21}, {"compound": "CC1CCc2cc(F)ccc2N1C(=O)c1cccs1", "note": "(stereo not drawn)", "hERG current change (%, negative = inhibition) at 10uM": 8.06}, {"compound": "O=C(NC1CCCCCC1)C1CCC(=O)N(Cc2ccccc2F)C1", "note": "(stereo not drawn)", "hERG current change (%, negative = inhibition) at 10uM": 4.73}, {"compound": "Cc1ccc(C(=O)/C=C/c2ccc(F)cc2)o1", "hERG current change (%, negative = inhibition) at 10uM": -8.48}, {"compound": "C=CCn1c(Cc2cccs2)nnc1SCC(=O)Nc1cccc(OC)c1", "hERG current change (%, negative = inhibition) at 10uM": -15.1}, {"compound": "COC(=O)[C@H]1[C@@H](C)N(Cc2ccccc2)C(=O)N[C@H]1c1cccc(C(F)(F)F)c1", "hERG current change (%, negative = inhibition) at 10uM": -4.26}, {"compound": "CCN(CC)CCCN=C(C)C1=C(O)c2ccccc2C1=O", "hERG current change (%, negative = inhibition) at 10uM": -41.2}, {"compound": "O=C1N/C(=C\\c2nc3ccccc3s2)c2ccccc21", "hERG current change (%, negative = inhibition) at 10uM": 8.56}, {"compound": "O=C(NC1CC1)c1sc2ccccc2c1Cl", "hERG current change (%, negative = inhibition) at 10uM": 10.7}, {"compound": "CCOc1cc(C)c(Cl)cc1S(=O)(=O)NCc1ccco1", "hERG current change (%, negative = inhibition) at 10uM": 2.98}, {"compound": "CCCCCCCNC(=O)C1(CC2CC(c3cccc(Br)c3)=NO2)CCN(C(=O)c2ccccc2)CC1", "note": "(stereo not drawn)", "hERG current change (%, negative = inhibition) at 10uM": -71}, {"compound": "O=c1c2ccccc2ncn1CCCCOc1ccccc1F", "hERG current change (%, negative = inhibition) at 10uM": -13.7}, {"compound": "O=C(c1ccc2c(c1)OCO2)N1CCN(c2ccccn2)CC1", "hERG current change (%, negative = inhibition) at 10uM": -5.9}, {"compound": "O=C(COC(=O)c1ccccc1)Nc1ccc(Cl)cc1C(=O)c1ccccc1", "hERG current change (%, negative = inhibition) at 10uM": 5.86}, {"compound": "CCC(=O)N1CCc2cc(S(=O)(=O)NCCC(=O)N3CC=C(c4ccccc4)CC3)ccc21", "hERG current change (%, negative = inhibition) at 10uM": -10.3}, {"compound": "CCn1c2ccccc2c2cc(NC(=O)COC(=O)c3ccccc3O)ccc21", "hERG current change (%, negative = inhibition) at 10uM": 20.9}, {"compound": "CCOC(=O)c1[nH]cnc1C(=O)NC1CCN(C(=O)OC(C)(C)C)CC1", "hERG current change (%, negative = inhibition) at 10uM": 9.17}, {"compound": "CCOc1cc(NC(=O)CC(C)C)c(OCC)cc1NC(=O)CCn1nnc2ccccc21", "hERG current change (%, negative = inhibition) at 10uM": 10.1}, {"compound": "COCCn1c(N/N=C(C)/C=C/c2ccccc2)nc2c1c(=O)[nH]c(=O)n2C", "hERG current change (%, negative = inhibition) at 10uM": -4.1}, {"compound": "CCOc1ccc(N(CC(=O)N2CCc3ccccc32)S(=O)(=O)c2c(C)noc2C)cc1", "hERG current change (%, negative = inhibition) at 10uM": -4.59}, {"compound": "Cc1ccc(OCC(O)Cn2c(N)nc3c2c(=O)n(C)c(=O)n3C)cc1", "note": "(stereo not drawn)", "hERG current change (%, negative = inhibition) at 10uM": -12.7}, {"compound": "Cc1cccc(Cn2cnc3c(NS(C)(=O)=O)c(C)c(C)cc32)c1", "hERG current change (%, negative = inhibition) at 10uM": 11}, {"compound": "CC1(c2ccccc2)CC(C)(C)N(C(N)=O)c2ccccc21", "note": "(stereo not drawn)", "hERG current change (%, negative = inhibition) at 10uM": -10.4}, {"compound": "Cc1cc(=O)oc(C)c1C(=O)NCC1CCCO1", "note": "(stereo not drawn)", "hERG current change (%, negative = inhibition) at 10uM": -6.89}, {"compound": "COc1cccc(C(=O)N2CCC(n3nccc3NC(=O)C(OC)c3ccccc3)CC2)c1", "note": "(stereo not drawn)", "hERG current change (%, negative = inhibition) at 10uM": -1.12}, {"compound": "COc1ccc(/C=C/C(=O)Nc2nonc2NC(C)=O)cc1", "hERG current change (%, negative = inhibition) at 10uM": 17.7}, {"compound": "O=c1c2ccccc2oc2cc(C#Cc3ccccn3)ccc12", "hERG current change (%, negative = inhibition) at 10uM": 7.36}, {"compound": "Cc1ccc(S(=O)(=O)NCCC(=O)NCc2ccccc2)cc1", "hERG current change (%, negative = inhibition) at 10uM": -1.91}, {"compound": "O=C1N/C(=N/S(=O)(=O)Cc2ccccc2)S/C1=C/c1ccc2c(c1)OCO2", "hERG current change (%, negative = inhibition) at 10uM": 0.744}, {"compound": "CC1=Nc2ccc(C)cc2/C1=C/c1c(N)n2nc(CC(=O)N3CCOCC3)sc2nc1=O", "hERG current change (%, negative = inhibition) at 10uM": 20.2}, {"compound": "C=CCN1C(=O)/C(=C/c2ccsc2)SC1=S", "hERG current change (%, negative = inhibition) at 10uM": 21.5}, {"compound": "CCSc1nsc(NC(=O)Nc2ccccc2OC)n1", "hERG current change (%, negative = inhibition) at 10uM": 10.5}, {"compound": "COc1ccc(-n2c(Cc3ccccc3)nnc2SCC(=O)N2CCCc3ccccc32)cc1", "hERG current change (%, negative = inhibition) at 10uM": -53.9}]}]}
